# Measurements: the antibiotic and cytotoxicity screens of Wong et al. (2023)
# This is one part of the list.
# Tested on: HSkMC (human skeletal muscle cells)
# Experiment: cytotoxicity call (relative viability < 0.9)
# Conditions: 10 µM
row,SMILES,cytotoxicity call
1,C[C@@H]1CN([C@H](C)CO)C(=O)c2cc(NC(=O)Nc3cccc4ccccc34)ccc2O[C@@H](C)CCCCO[C@@H]1CN(C)C(=O)NC1CCCCC1,inactive
2,C[C@H](CO)N1C[C@H](C)[C@H](CN(C)CC2CC2)Oc2ccc(NS(=O)(=O)c3ccc(F)cc3)cc2C1=O,inactive
3,C[C@@H]1CCCCO[C@@H](CN(C)CC2CC2)[C@H](C)CN([C@H](C)CO)C(=O)c2cc(NC(=O)CCC(F)(F)F)ccc2O1,inactive
4,CO[C@H]1CN(C)C(=O)c2ccc(NC(=O)Nc3cccc(Cl)c3)cc2OC[C@@H](C)N(C(=O)Nc2c(C)noc2C)C[C@H]1C,inactive
5,NC[C@@H](O)c1ccc2ccccc2c1,inactive
6,C[C@H](CO)N1C[C@H](C)[C@@H](CN(C)C(=O)NC2CCCCC2)OCCCC[C@H](C)Oc2ccc(NC(=O)Nc3ccccc3)cc2C1=O,inactive
7,CC(C)NC(=O)Nc1cccc2c1O[C@H](CN(C)S(=O)(=O)c1ccc(Cl)cc1)[C@@H](C)CN([C@@H](C)CO)C2=O,inactive
8,Cc1cccc(S(=O)(=O)N2C[C@H](O)COC[C@@H]3O[C@H](CC(=O)NCCCN4CCOCC4)CC[C@H]32)c1,inactive
9,COc1ccc(NC(=O)Nc2ccc3c(c2)C(=O)N([C@H](C)CO)C[C@H](C)[C@H](CN(C)CC2CCCCC2)OCCCC[C@@H](C)O3)cc1,inactive
10,C[C@@H]1CN([C@H](C)CO)C(=O)Cc2cc(NC(=O)NC3CCCCC3)ccc2O[C@H]1CN(C)S(=O)(=O)c1cn(C)cn1,inactive
11,Nc1ccc(-c2ccco2)cc1,inactive
12,CCCNS(=O)(=O)c1c[nH]c(C(=O)OC)c1,inactive
13,C[C@H](NC(=O)[C@@H]1CCCC[C@H]1C(=O)O)c1ccccc1.C[C@H](NC(=O)[C@H]1CCCC[C@H]1C(=O)O)c1ccccc1,inactive
14,NC(=O)c1ccc[n+](CC(=O)c2ccccc2)c1,inactive
15,Cc1ccccc1OC[C@@H](O)CO,inactive
16,CC(C)NC(=O)Nc1ccc2c(c1)CC(=O)N([C@H](C)CO)C[C@@H](C)[C@H](CN(C)Cc1ccc(-c3ccccc3)cc1)O2,inactive
17,NC(=O)N1C(=O)[C@H]2[C@H](C1=O)[C@H]1C=C(c3ccc(CO)cc3)[C@@H]2[C@@H](C2CC2)N1Cc1cc2c(cc1Br)OCO2,inactive
18,C[C@@H]1CN([C@@H](C)CO)C(=O)Cc2cc(NC(=O)Nc3ccc(F)cc3)ccc2O[C@@H]1CN(C)Cc1ccc(Oc2ccccc2)cc1,inactive
19,COc1ccc(NC(=O)Nc2ccc3c(c2)C(=O)N([C@@H](C)CO)C[C@@H](C)[C@@H](CN(C)Cc2ccc(Cl)c(Cl)c2)O3)cc1,inactive
20,COc1cccc(S(=O)(=O)Nc2ccc3c(c2)[C@@H]2C[C@@H](CC(=O)NCc4ccccc4F)O[C@@H](CO)[C@@H]2O3)c1,inactive

row,SMILES,cytotoxicity call
1,C[C@@H]1CN([C@H](C)CO)C(=O)c2cccc(NC(=O)c3cnccn3)c2O[C@H]1CN(C)Cc1ccncc1,inactive
2,O=C(C[C@@H]1C[C@@H]2c3cc(NC(=O)C4CCOCC4)ccc3O[C@@H]2[C@@H](CO)O1)NCc1cc(F)ccc1F,inactive
3,O=C1O[C@@H](c2ccccc2)[C@@H](c2ccccc2)N2[C@@H](c3ccc(OCCO)cc3)[C@]3(C(=O)Nc4ccc(C#CC5(O)CCCCCC5)cc43)[C@@H](C(=O)NC[C@H](O)c3ccccc3)[C@H]12,inactive
4,Cl.N=C(N)NC(=N)NCCc1ccccc1,inactive
5,C[C@@H]1CN([C@@H](C)CO)S(=O)(=O)c2ccc(C#Cc3cccc(F)c3)cc2O[C@@H]1CN(C)S(=O)(=O)c1ccccc1F,inactive
6,C[C@@H]1CN([C@H](C)CO)C(=O)Cc2cc(NC(=O)Cc3cn(C)c4ccccc34)ccc2O[C@@H]1CN(C)CC1CCCCC1,inactive
7,C[C@@H]1CN([C@@H](C)CO)C(=O)c2cc(NC(=O)NC3CCCCC3)ccc2O[C@@H](C)CCCCO[C@H]1CN(C)Cc1ccccc1,inactive
8,COc1ccc(S(=O)(=O)N(C)C[C@H]2Oc3ccc(NC(=O)CCCN(C)C)cc3C(=O)N([C@H](C)CO)C[C@@H]2C)cc1,inactive
9,Cc1noc(C)c1NC(=O)N(C)C[C@@H]1OCCCC[C@@H](C)Oc2ccc(NC(=O)NC3CCCCC3)cc2C(=O)N([C@H](C)CO)C[C@@H]1C,inactive
10,C[C@H]1CN([C@@H](C)CO)C(=O)Cc2cc(NS(=O)(=O)c3cccs3)ccc2O[C@H]1CN(C)Cc1ccc(-c2ccccc2)cc1,inactive
11,COc1ccc(CN(C)C[C@@H]2OCCCC[C@H](C)Oc3ccc(NS(=O)(=O)c4ccccc4)cc3C(=O)N([C@H](C)CO)C[C@H]2C)cc1,inactive
12,COc1ccccc1CNC(=O)C[C@@H]1C[C@@H]2c3cc(NC(=O)c4ccc5c(c4)OCO5)ccc3O[C@@H]2[C@@H](CO)O1,inactive
13,COc1ccc2c3c(n(c2c1)C)[C@H](CO)N(CC1CCCC1)C[C@]13CCN(CC1)C(=O)Nc1ccccc1,inactive
14,COc1ccc(S(=O)(=O)Nc2ccc3c(c2)C(=O)N([C@@H](C)CO)C[C@@H](C)[C@@H](CN(C)S(=O)(=O)c2ccc(Cl)cc2)OCCCC[C@H](C)O3)cc1,inactive
15,C[C@H]1CN([C@@H](C)CO)C(=O)c2cc(NC(=O)Cn3cnnn3)ccc2O[C@@H]1CN(C)S(=O)(=O)c1ccc(F)cc1,inactive
16,C[C@@H]1CCCCO[C@@H](CN(C)S(=O)(=O)c2ccc(Cl)cc2)[C@@H](C)CN([C@H](C)CO)C(=O)c2cc(NS(=O)(=O)c3ccc(Cl)cc3)ccc2O1,inactive
17,C[C@H](CO)N1C[C@H](C)[C@@H](CN(C)Cc2ccc(C(F)(F)F)cc2)Oc2c(NC(=O)Nc3ccc(C(F)(F)F)cc3)cccc2C1=O,inactive
18,C[C@H](CO)N1C[C@H](C)[C@@H](CN(C)Cc2ccc3c(c2)OCO3)OCCCC[C@H](C)Oc2ccc(NC(=O)Nc3cccc4ccccc34)cc2C1=O,active
19,C[C@@H]1CN([C@H](C)CO)C(=O)c2cc(NC(=O)CCC(F)(F)F)ccc2O[C@@H](C)CCCCO[C@H]1CN(C)Cc1ccc(C(=O)O)cc1,inactive
20,C[C@H](CO)N1C[C@H](C)[C@@H](CN(C)Cc2ccc(Oc3ccccc3)cc2)Oc2ccc(NC(=O)Nc3ccc4c(c3)OCO4)cc2C1=O,inactive
